Results published in the supplement of paper PMC10338343.
± gives the standard deviation. Only a part is listed here, and it is no random draw.

Tested on: MIWI (PIWIL1) piRISC loaded with piRNA #1 (30 nt)
Assay: pre-steady-state target cleavage rate (min^-1); MIWI and MILI are mouse PIWI proteins and EfPiwi is from a freshwater sponge; tags in brackets are library labels; higher = faster piRNA-guided slicing of the target
Conditions: guide: piRNA #1 5'p-UGAGGUAGUAGGUUGUAUAGUAUCCAGAGG; auxiliary factor: 500 nM mouse GTSF1
Method in brief: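 Active affinity-purified piRISC (1 nM) loaded with one synthetic guide was mixed with a transcribed, DNA-blocked target RNA library (0.1 nM), with or without 500 nM GTSF1 partner protein, in HEPES–potassium acetate buffer at 33 °C for 0–8 or 0–960 min. Uncleaved targets were sequenced, normalised to depth and to weakly complementary targets, and pooled across three trials, with k3 capped at 0.0001 min^-1. The pre-steady-state cleavage rate was determined with a burst-and-steady-state fit.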

Row | Sequence | pre-steady-state target cleavage rate
1 | CCUCUGGAUACUAUACAACCAACUAGCUCA | 0.13 ± 0.021
2 | CCUCUCGAUACUAUACAACCUACAACCUCA | 1.34 ± 0.077
3 | GGUCUGGAUACUAUUCUACCUACUACCUCA | 1.14 ± 0.11
4 | GGAGACCUUAGUAUACAACCUACUAGCUCA | 0.0674 ± 0.013
5 | GGAGUGGAUACUAUACAACCUACGUACCUCA | 0.712 ± 0.076
6 | GCUCUGGAUACAAUACAACCUACUACCUGA | 0.9 ± 0.11
7 | GGUCUGGAUACUAUACAACCUACUACCAUCA | 0.369 ± 0.035
8 | GGAGUGAAUACUAUACAACCUACUACCUCA | 1.76 ± 0.12
9 | GGAGAGGAUUCUAUACAACCUACAACCUCA | 0.487 ± 0.051
10 | CCUCUGGAUACUAUACAACCUACUACCCA | 0.602 ± 0.062
11 | GGAGACGAUACUAUUGUACCUACUACCUCA | 0.0678 ± 0.0085
12 | GGACUGCAUACUAUAGAACCUACUACCUCA | 1.26 ± 0.079
13 | GCUCUGGAUACUAUACAACCUAUUACCUCA | 1.88 ± 0.13
14 | GGAGACCAUACUAUACAACCUACGACCUCA | 0.921 ± 0.059
15 | GGUCUGGAUUGUAUACAACCUACUACCUCA | 0.795 ± 0.051
16 | GGACUGGAUACUAUGCAACCUACUACCUCA | 1.78 ± 0.12
17 | GGAGACCUAACUUUACAAGCUACUACCUCA | 0.119 ± 0.024
18 | GGAGACGAAACUAUACAACCUUCUACCUCA | 0.55 ± 0.037
19 | GGAGACCUAUCUAUACAACCUACUACCUCG [g2:g20:cont:t1G] | 0.836 ± 0.058
20 | GGAGACGAUACUAUACCACCUACUACCUCA | 1.29 ± 0.08
21 | GGACUGGAUACUAUACAACGUACUACGUCA | 0.397 ± 0.065
22 | GGAGACCUAUCAAUACAACCUACUACGUCA | 0.0093 ± 0.004
23 | GGAGACCUAUGAUAACAACCUCCUACCUCA | 0.00268 ± 0.0026
24 | GGACUGGAUACUAUACAACCUUGUACCUCA | 0.0296 ± 0.0061

Row | Sequence | pre-steady-state target cleavage rate
25 | GGUCUGGAUACUAUACAACCUUCUUCCUCA | 0.00514 ± 0.0021
26 | GGAGACCAUACUAUACAACCUAUUACCUCA | 1.49 ± 0.097
27 | GGAGACCUUACUAAUCAACCUACUACCUCA | 0.139 ± 0.023
28 | GGAGACCUAUGUAUCACAACCUACUACCUCA | 0.00357 ± 0.0033
29 | GGAGACCUAUGAUAUGUUGGUACUUCCUCA | < 0.0001
30 | GGAGACCAAACUAUACAACCUACAACCUCA | 0.379 ± 0.052
31 | GGAGAGGAUACUAUACAACCUACAACCUGA | 0.00836 ± 0.0037
32 | GGAGACCUAUCUUUACAACCUAGUACCUCA | 0.0293 ± 0.0069
33 | GGACUGGAAACUAUACAACCUACUACCUGA | 0.467 ± 0.1
34 | GGAGACGAUAGUAUACAACCUUCUACCUCA | 0.51 ± 0.031
35 | GGAGACCUAUCUAUACAACCUACAUGGAGA [g8:g20:cont:t1A] | 0.00396 ± 0.0031
36 | GGAGACCAUACAAUACAAGCUACUACCUCA | 0.459 ± 0.048
37 | GGAGUGGAUACUAUACAACCUACAUCCUCA | 0.0216 ± 0.0041
38 | GGAGACCUUACUAUACAACCUACUACCUCCA | 1.21 ± 0.071
39 | CCUCUGCAUACUAAACAACCUACUACCUCA | 1.93 ± 0.12
40 | GGACUGGAUACUUUACAUCCUACUACCUCA | 1.25 ± 0.11
41 | GGAGUGGAAACUAUACAACCUAGUACCUCA | 0.458 ± 0.065
42 | GGAGACCUAUGAUAUGUUCCUACCUACCUCA | < 0.0001
43 | GGAGACCUUACUAUACAUCCUACUACGUCA | 0.515 ± 0.044
44 | GGAGACGAUACUAUACAACCUAGCUACCUCA | 0.178 ± 0.018
45 | GGACUGGAUACUGUACAACCUACUACCUCA | 1.79 ± 0.13
46 | GGACUGGAUACUAUACAUCCUACUACCUGA | 0.531 ± 0.073
47 | GGAGACCUAACUAUACAACCUACCACCUCA | 0.623 ± 0.062
48 | GGUCUGGAUACUAUUCAACGUACUACCUCA | 0.937 ± 0.067

Row | Sequence | pre-steady-state target cleavage rate
49 | GGAGACCUUACUAUACUACCUACAACCUCA | 0.0791 ± 0.013
50 | GGAGACGAUUCUAUUCAACCUACUACCUCA | 1.6 ± 0.13
51 | GGAGUGGAUACAUAACAACCUACUACCUCA | 0.621 ± 0.071
52 | GCUCAGGUUACUAUACAACCUACUACCUCA | 2.01 ± 0.12
53 | GGAGACCUAACUAUACAACCUAGAUCCUCA | 0.00694 ± 0.0038
54 | GCUCUGGAUACUUUACAACCUAGUACCUCA | 0.458 ± 0.062
55 | GCUCUGGAUACAAUACAUCCUACUACCUCA | 1.38 ± 0.089
56 | GGUCUGCAUACUAUACAACCUACUACGUCA | 0.635 ± 0.066
57 | GGAGACGAUACUAUACAUCCUUCUACCUCA | 0.242 ± 0.022
58 | GCUCUGGAUUCUAUACAACCUACUUCCUCA | 0.352 ± 0.022
59 | GGAGACCUAACUAUACAACCUAGUACCACA | 0.226 ± 0.055
60 | GGAGACGAUACUAUUACAACCUACUACCUCA | 1.45 ± 0.1
61 | CCUCUGGAUACUAUACAACGAACUACCUCA | 0.0274 ± 0.0066
62 | GGAGUGGAUACUAUACAACUACUACCUCA | 0.496 ± 0.035
63 | GGAGACCUUACUAUACAACCUACUACCUUA | 1.39 ± 0.09
64 | GGAGACCUAUGUAUAGAACCUACUACCUGA | 0.00398 ± 0.0017
65 | GGAGACCUUACUAUACAACCUACUCCCUCA | 0.863 ± 0.072
66 | GGAGACCUAUCUAUACAACCUACUUCCACA | 0.0128 ± 0.0042
67 | GGAGACCUUACUAUAUCAACCUACUACCUCA | 0.0244 ± 0.0056
68 | CCUCUGGAUACUAUACUACCUACAACCUCA | 1.08 ± 0.098
69 | GGAGUGGAAACUAUACAUCCUACUACCUCA | 1.12 ± 0.062
70 | GCACUCGAUACUAUACAACCUACUACCUCA | 1.43 ± 0.059
71 | GGAGACCUAUGAUAUGUUCCUAUCUACCUCA | < 0.0001
72 | GGAGACCAUACUAUACAACCUACAUGGAGA [g8:g23:cont:t1A] | 0.026 ± 0.01

Row | Sequence | pre-steady-state target cleavage rate
73 | GGAGACCUUACUAUACAACCUACUCACCUCA | 0.792 ± 0.062
74 | GGACUGGAUACUAUACAACCUACUACCGUCA | 0.0636 ± 0.0098
75 | CCUCUGGAAACUAUACUACCUACUACCUCA | 1.74 ± 0.11
76 | GGAGACCUAUGUAUACAACCUACAACGUCA | 0.00265 ± 0.002
77 | GGAGACGAUUCUAUAGAACCUACUACCUCA | 1.37 ± 0.091
78 | GGAGACCUAUCUAUACAACCUGCUACCUCA | 0.22 ± 0.022
79 | GGAGACCUAUCUAUACAACCUACCACCUCA | 0.678 ± 0.06
80 | GCUCUGGAUUCUAUACUACCUACUACCUCA | 0.943 ± 0.066
81 | GGAGUGGAUACUAUACUUGCUACUACCUCA | 0.0421 ± 0.0077
82 | CCUCUGGAUACUAUACAACCAACUUCCUCA | 0.0493 ± 0.01
83 | GGAGACCUAUGAUAACUAGCUACUACCUCA | < 0.0001
84 | GGAGACCUAUCAAUACAACCUACUACCUCA | 0.139 ± 0.049
85 | GGAGACCUAACUAUACAACCUACUACGACA | 0.379 ± 0.065
86 | GGAGACGAUAGUAUACAACCUACUACCUCA | 1.07 ± 0.065
87 | GCUCUGGAUACUAUACUACCUACUACCACA | 1.66 ± 0.15
88 | GGAGACCUAUGAUAUGUUCCUACUCCUCA | < 0.0001
89 | GGAGACGAUACUAUACAACCUACUACCUCCA | 2.06 ± 0.12
90 | GGAGACCUAUGAAUACAACCUACAUGGAGA [g8:g18:cont:t1A] | < 0.0001
91 | GGAGACCUAUGCAUACAACCUACUACCUCA | 0.063 ± 0.014
92 | GGACUGGAUACAAUACAACCUACUAGCUCA | 0.104 ± 0.019
93 | GGACUGGAUACUUUACAACCUACUACCUCA | 1.53 ± 0.1
94 | GGAGUGGUACUAUACAACCUACUACCUCA | 1.42 ± 0.084
95 | GGAGACCAUACUUUACAUCCUACUACCUCA | 0.953 ± 0.094
96 | GGAGACCUAUCUAUCCAACCUACUACCUCA | 0.485 ± 0.046
